Test results from PubChem BioAssay AID1508624 (National Center for Advancing Translational Sciences (NCATS), 2021).
Out of some 48,000 compounds screened, about 120 (0.25%) were called active. Inconclusive results (about 4%) are left out. The call rests on the fitted dose curve; in most records, active means well fitted activation curve with a large enough effect; inconclusive means small, poorly fitted or top-dose-only effect, or another doubt; inactive means no such curve, though single readings can be large or run the other way. The list shows a part of the results.

assay: Primary qHTS for Identification of Small Molecule Activators of Huntingtin-Antisense Promoter Activity; conditions: HEK293 HTT-AS promoter firefly luciferase reporter (activity 0% = vehicle and -100% = no light), 24 h; series mostly up to 57.5 µM; activity change, positive = activation: at the top concentration; further: nearly all actives have a fitted effect of over 55% in size
Outline: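 Quantitative HTS used concentration series of up to 57.5 uM final on HEK293 luciferase reporter cells, 24 h at 37 degrees C. Readout was Dual-Glo firefly luminescence.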

Activity change, positive = activation, inactive:
CCCCN(C)CCCNC(=O)c1ccc2nc(N3CCCCC3)sc2c1 -28.6%, Cc1ccc(NC(=O)c2oc3ccccc3c2NC(=O)Cc2cccs2)cc1 22.5%, CCOc1ccccc1NC(=O)Nc1nnc(N(C)Cc2ccccc2)s1 18%, Cc1ccc(C(Nc2ccccn2)c2ccc3cccnc3c2O)cc1 (stereo unspecified) -48.4%, COc1ccccc1NC(=O)CCS(=O)(=O)c1ccc2nc(C)sc2c1 -9.59%, COc1cc(Cl)c(NS(=O)(=O)c2ccc3c(c2)CC(C)N3C(=O)C2CCC2)c(OC)c1 (stereo unspecified) -86.9%, COc1cc(Cl)c(C)cc1NC(=O)CCc1c(C)nc2cc(-c3cccc(F)c3)nn2c1C -58.7%, CCc1c(C)sc2c1CCN(C(=O)Nc1ccccc1C(F)(F)F)C2c1ccccc1 (stereo unspecified) -48.7%, Cc1ccccc1NC(=O)c1c(NC(=O)C(C)Oc2cccc(Cl)c2)sc2c1CCCC2 (stereo unspecified) -19.6%, O=C(CCn1cnc2onc(-c3ccc(F)cc3)c2c1=O)N1CCN(c2ccc(F)cc2)CC1 -26.1%, CCn1c(C(=O)N2CCCC(C(=O)NCCCOC)C2)cc2sccc21 (stereo unspecified) -21.2%, COc1ccc(N2CCN(C(CNC(=O)CC(C)C)c3ccc4c(c3)OCO4)CC2)cc1 (stereo unspecified) -11.3%, CCc1cccc(CC)c1NC(=O)Cn1nnc2sc(-c3ccccc3)cc2c1=O -10.9%, Cc1ccc(-c2nc3ccc(Cl)cn3c2Nc2ccc3c(c2)OCCO3)o1 17.1%, COc1ccc(-c2nc(CS(=O)CC(=O)NCc3ccc(F)cc3)c(C)o2)cc1OC (stereo unspecified) -19.4%, CCCCOc1ccc(C2=NC(c3ccncc3)=Nc3ccc(Br)cc3N2)cc1 -6.42%, CCCCCC(=O)O[C@]1(C(C)=O)CC[C@H]2[C@@H]3CCC4=CC(=O)CC[C@]4(C)[C@H]3CC[C@@]21C -20%, CCOc1ccccc1N(CC)C(=O)Nc1cn(C)c(=O)c2ccccc12 -15.2%, COc1ccc(OCC(=O)Nc2ccc(C(=O)OCc3cc(=O)n4nc(C)sc4n3)cc2)cc1 -10.4%, Cc1c(Cl)cccc1-n1ncc(C(=O)N2CCc3ccccc3C2)c1C1CCN(C(=O)OC(C)(C)C)CC1 3.38%, Cc1ccc(/C=C/c2onc(C)c2S(=O)(=O)N2CCC(C(=O)N3CC(C)Oc4ccccc43)CC2)cc1 (stereo unspecified) -14.9%, CCCCCn1c(=O)[nH]c2cc(C(=O)N3CCN(c4ccccc4)CC3)ccc2c1=O -7.05%, O=C(CSc1nc(-c2ccc(F)cc2)cc(C(F)(F)F)n1)NCc1ccccc1 -18.7%, COc1ccc(OCC(=O)NCC2(N3CCN(C)CC3)CCCCC2)cc1 -19.1%, CCCCNC(=O)CCC(=O)NNc1nc2ccccc2c2nc(-c3ccccc3)nn12 -3.96%, Cc1cccc(C(=O)Nc2c3c(nn2-c2ccc(Cl)cc2)CS(=O)(=O)C3)c1 -24.5%
